# Measured values: ChEMBL document CHEMBL4888484, “Replenishing the malaria drug discovery pipeline: Screening and hit evaluation of the MMV Hit Generation Library 1 (HGL1) against asexual blood stage Plasmodium falciparum ,using a nano luciferase reporter read-out” (2022)
# Hit rate of the full screen: of about 150,000 compounds, about 540 (0.36%) showed an effect of 50% or more. The list shows a part of the results.
# Test system: Plasmodium falciparum
# Test: Primary screen in NF54 nanoGlo assay, in single point, at 2uM, 72h; a lower Z score goes with more inhibition
# Assay type: functional, Erythrocyte
# Conditions: timepoint 72 hour
SMILES,% Inhibition,Z score
COc1cc(Br)c(S(=O)(=O)N[C@H](CN)CC(C)C)cc1Cl,-9%,0.91
CN1CCN(C[C@H]2CCC3(CCN(S(=O)(=O)c4ccccc4Cl)CC3)O2)CC1,-11%,1.47
Cn1cncc1C(=O)NC1(c2nc3ccccc3s2)COC1,-6%,0.92
Cn1c(N2CCC[C@H](S(=O)(=O)NC3CCCC3)C2)cccc1=O,-6%,0.48
Cc1ccc(C(=O)N2CCC3(CC2)COC(=O)N3)c(C(C)C)n1,-11%,1.66
O=C(Cc1ccn[nH]1)N[C@H]1CCCOc2c1ccc1ccccc21,4%,-0.8
O=C(Cn1cnnn1)NCc1ccc2c(c1)CCC2,-44%,5.16
CN(C(=O)c1csc(=O)[nH]1)[C@H]1CCN(c2ccccc2)C1=O,-10%,1.61
CC(C)c1nc(N2CCO[C@H](c3ccc(Cl)cc3)C2)no1,4%,-0.84
Cc1cc(C)nc(N2C(=O)c3ccc(C(=O)O)cc3C2=O)n1,-9%,1.12
CC1CN(C(=O)NC2CC(=O)N(c3ccccc3)C2)CC(C)O1 (stereo unspecified),-2%,0.29
Oc1ccccc1-c1nc(Oc2ccc3ccccc3c2)c2ccccc2n1,-4%,0.56
O=C1NC[C@H]2O[C@H](CCOc3cc(-c4ccccc4)ccc3C(=O)N3CCN(Cc4ccc(F)cc4)C[C@@H]13)CC[C@@H]2O,-8%,1.15
CN(C1CCCCC1)[C@@H](c1ccsc1)c1sc2ncnn2c1O,2%,-0.26
COc1cccc(-c2cc(-c3c(C)nn(C)c3C)nc(N3CC[C@H](N)C3)n2)c1,-23%,2.1
COc1ccc(C(=O)N2C[C@@H](Oc3ccccc3)C[C@@H]2C(=O)N2CCOCC2)cc1,-8%,1.59
O=C(Cc1ccn[nH]1)N[C@H]1CCN(c2ccc(F)c(Cl)c2)C1,-5%,0.55
NC(=O)Cn1ccnc1[C@H]1CCCN(c2ccnc3cc(Cl)ccc23)C1,11%,-1.65
CCC(=O)N1CCC[C@H](N(CCCN2CCCC2)C(=O)C(C)C)C1,-2%,0.27
C[C@H]1CN(C)CCN1C(=O)c1ccccc1-n1cnnn1,-5%,0.52
CC(C)Cc1n[nH]c(-c2[nH]c3ccccc3c2Cl)n1,-5%,0.89
Cc1[nH]c(=O)[nH]c(=O)c1S(=O)(=O)N1CCC[C@H](C(=O)Nc2nccs2)C1,-12%,1.54
O=S(=O)(C1CCOCC1)N1CC2C3CCC(C3)C21 (stereo unspecified),-10%,1.69
Cc1[nH]nc(CCC(=O)N2CC=C[C@@H]2C(C)C)c1C,-7%,0.81
CCN1C(=O)C[C@H](N2CCN(c3ncc(Br)cn3)CC2)C1=O,9%,-0.99
CCn1nccc1C(=O)N(Cc1ccncc1)Cc1ccc(C)s1,-14%,1.54
O=C(c1ccc(F)c(O)c1)N1C[C@@H]2[C@H]3CC[C@H](CC3)[C@@H]2C1,0%,-0.05

SMILES,% Inhibition,Z score
Cc1nn(-c2ccccc2)c2nc(Cc3ccccc3)nc(N3CCN(Cc4ccc(F)cc4)CC3)c12,8%,-1.24
CCCc1nnc2sc([C@H]3CCC(=O)N(CC(C)C)C3)nn12,1%,-0.19
CC1(C)C[C@]2(CCCN(Cc3nc4c(c(=O)[nH]3)C3(CCCC3)Cc3ccccc3-4)C2)CCO1,-4%,0.62
Cn1cncc1C(=O)N1CCC[C@H]1CO,-2%,0.31
C[C@H](NS(=O)(=O)c1ccc2c(c1)OCCO2)C(=O)N1CCCC1,-20%,2.39
CC(=O)c1cc(C(=O)NCc2cccnc2N2CCOCC2)[nH]n1,6%,-1.25
CCC(=O)NCCc1csc(C2CCN(C(=O)c3cc(C)ccc3C)CC2)n1,-6%,0.67
CC(C)n1cc2cc(NC(=O)N(C)[C@@H](C)CO)ccc2n1,1%,-0.08
Nc1nnc(Cc2cccc3ccccc23)s1,-5%,0.7
COc1nccnc1CN1CC[C@H](O)C1,-3%,0.28
O=C(NCc1cc(-c2ccncc2)n(C2CCCC2)n1)[C@@H]1CC=CCC1,-16%,1.78
Cc1cc(C(=O)N2C(C)CN(C(=O)C(C)(C)C)CC2C)c2ccccc2n1 (stereo unspecified),-11%,1.66
COc1cc(NC(=O)N2CCN(C(=O)c3nsc4ccccc34)CC2)cc(OC)c1,5%,-0.93
COc1ccccc1[C@H](c1c(NC(=O)c2cccs2)sc(C)c1C)N1CCC(C)CC1,6%,-1.24
CN(C)c1ccc(-c2noc(-c3ccc(F)c(Cl)c3)n2)cc1,-5%,0.67
O=C(NC(c1ccccc1)c1ccccc1)C1CCN(S(=O)(=O)Cc2ccc(F)cc2)CC1,-3%,0.66
Cc1csc(Cn2cc(C(N)=O)nc2C2CC2)n1,-14%,1.57
Cc1noc(C)c1CNc1cc(C(C)C)on1,-14%,2.72
CNc1ccc(NC(=O)NCc2cccnc2N2CCOCC2)cn1,33%,-3.79
CCN1CCN(S(=O)(=O)CCc2scnc2C)C[C@H]1c1ncc[nH]1,-6%,1.3
C=CCn1cnc(-c2ccccc2)c1-c1ccc2onc(C)c2c1,-10%,1.27
O=c1scnn1Cc1nc(C(F)(F)F)cs1,-12%,1.37
Cc1cccc(C(=O)NCC[C@H](O)C2CCOCC2)c1,-7%,1.32
COc1ccccc1C(=O)NC[C@H]1CCN(C2CCCCCC2)C1,-2%,0.29
COC1CN(C(=O)C2CC=CC2)CCC1C (stereo unspecified),-7%,0.84
O=C(NCCn1cnc(C2CC2)cc1=O)[C@@H]1CCCO1,-3%,0.53
